This assay has as its system Influenza A virus. Particulars: examples using ginseng (Table 1), non-treated control = 100.

Consider `C[C@@H]1C[C@H]2[C@@H]3CCC4=CC(=O)C=C[C@]4(C)[C@@]3(F)[C@@H](O)C[C@]2(C)[C@@]1(O)C(=O)CO` [Comparative Example 4, Dexamethasone], for which the “Relative virus titer Influenza A virus” value is 102 ± 1.9.

Take `C[C@]12C=CC(=O)C=C1CC[C@@H]1[C@@H]2[C@@H](O)C[C@@]2(C)[C@H]1CC[C@]2(O)C(=O)CO` [Comparative Example 6, Prednisolone]: the “Relative virus titer Influenza A virus” value worked out at 103 ± 1.9.

For the compound `C[C@]12C=CC(=O)C=C1CC[C@H]1[C@@H]3C[C@@H](O)[C@](O)(C(=O)CO)[C@@]3(C)C[C@H](O)[C@@]12F` [Comparative Example 7, Triamcinolone], the “Relative virus titer Influenza A virus” value turned out to be 103 ± 1.9.

For the origin of these results see patent US20250114416A1, “ANTIVIRAL C[…] EXTRACT AND STEROID COMPOUND AS ACTIVE INGREDIENTS” (priority 2022, published 2025).
